Experimental data from PubChem BioAssay AID624417 (National Center for Advancing Translational Sciences (NCATS), 2012).
Out of some 410,000 compounds screened, about 6,400 (1.6%) were called active. The inconclusive results got no clear call from the source; some entries with a clear call stand among them for comparison. Calls come from the whole dose curve; as a rule, active = well fitted inhibition curve with a large enough effect; inconclusive = small, poorly fitted or top-dose-only effect; inactive = no such curve, though single readings can be large or run the other way. Potencies of inconclusive entries are left out as doubtful fits.

Target: Glucagon-like peptide 1 receptor (Homo sapiens) (UniProt P43220)
Assay: qHTS of GLP-1 Receptor Inverse Agonists (Inhibition Mode); note: nearly all actives have a fitted effect of over 55% in size
Conditions: HEK293 GLP-1R CRE-luciferase, luminescence, 24 h, GLP-1R form is constitutively active; series mostly up to 38.3 µM
Procedure, shortened: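 HEK293 cells stably co-expressing a cAMP-responsive luciferase reporter and constitutively active GLP-1R were seeded, incubated 12 h, then exposed to compounds for 24 h at 37 C. Luminescence was read 12 min after detection reagent; inverse agonists lower signal.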
Potency is the fitted concentration of half-maximal effect; tags give direction and shape of the fitted curve.

UniProt P43220, sequence (P43220 whole entry, looked up): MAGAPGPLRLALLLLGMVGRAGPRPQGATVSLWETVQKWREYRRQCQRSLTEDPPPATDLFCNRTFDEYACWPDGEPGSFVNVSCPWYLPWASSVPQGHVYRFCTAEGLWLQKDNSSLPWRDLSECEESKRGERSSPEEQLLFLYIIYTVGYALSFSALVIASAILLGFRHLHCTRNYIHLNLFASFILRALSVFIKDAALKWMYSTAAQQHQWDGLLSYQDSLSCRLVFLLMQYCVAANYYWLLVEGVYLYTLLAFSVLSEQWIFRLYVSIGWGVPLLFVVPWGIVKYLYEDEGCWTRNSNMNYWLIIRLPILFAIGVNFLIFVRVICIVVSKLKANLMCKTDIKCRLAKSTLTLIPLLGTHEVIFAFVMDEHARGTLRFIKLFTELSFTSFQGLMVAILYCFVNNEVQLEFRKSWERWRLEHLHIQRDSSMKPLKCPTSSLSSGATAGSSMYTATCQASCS

Compound	Potency
COC(=O)C1=C(C(=O)OC)SC2(S1)C(C(=O)OC)=C(C(=O)OC)SC1=C2c2cc(C)cc(C)c2NC1(C)C	inconclusive [inhibitor, full curve, poor fit]
CCOc1ccc(-c2cc(N)n(S(=O)(=O)c3ccc(OC)cc3)n2)cc1	inconclusive [inhibitor, single point]
COc1cc(C(=O)/C=C/c2cccnc2)c([N+](=O)[O-])cc1OC	inconclusive [inhibitor, partial curve, poor fit]
COc1ccccc1-c1cc(C(F)(F)F)nc(N2CCCC2)n1	inconclusive [inhibitor, single point]
Cc1ccc(OCCNS(=O)(=O)c2ccc(N3CCCC3=O)cc2)cc1	inactive
CN1C(C(=O)Nc2ccc(OC(F)(F)F)cc2)=CC(c2ccco2)=NS1(=O)=O	inconclusive [inhibitor, single point]
CCN(CC)C(=O)c1cccc(-c2csc(C(C)(O)c3ccc(OC)cc3)n2)c1 (stereo not given)	inconclusive [inhibitor, partial curve, poor fit]
C/C(=N\OCC(=O)Nc1ccccc1Br)c1cccs1	inconclusive [inhibitor, single point]
CSCCNC(=O)C1(C)CCN1C(=O)c1cc(C)n(C)n1 (stereo not given)	inactive
Cc1ccccc1OCc1nnc(SCC(=O)Nc2c(C)n(C)n(-c3ccccc3)c2=O)n1-c1ccccc1	inconclusive [inhibitor, single point]
CC(C)(C)N(Cc1ccccc1)C(=O)CSc1nnc(CNc2ccc(F)cc2)o1	inconclusive [inhibitor, single point]
CCCCc1n[nH]c2c1/C(=N/OCC)CC(C)(C)C2	inconclusive [inhibitor, partial curve, poor fit]
Cc1ccc(CN2C(=O)c3ccccc3Sc3ccc(C(=O)OCc4ccco4)cc32)cc1	inactive
Cc1ccc(-n2nnnc2C(Cl)(Cl)c2nnnn2-c2ccc(C)cc2)cc1	inactive
O=C(CCCCC(=O)NCCc1ccccc1)NCCc1ccccc1	inactive
CCOC(=O)C1=C(Nc2ccc(OC)cc2)C(N)=NC1=N	inconclusive [inhibitor, full curve, poor fit]
CC(=O)NS(=O)(=O)c1cccnc1Nc1ccc(Cl)c(Cl)c1	inconclusive [inhibitor, single point]
O=C(c1ccc(C(F)(F)F)cc1)N1CCC(=O)N(C(COCc2ccc(C(F)(F)F)cc2)Cc2ccccc2)CC1 (stereo not given)	inconclusive [inhibitor, partial curve, poor fit]
O=C(CCC1CCCN(C2C3CC4CC(C3)CC2C4)C1)NCc1ccc(F)c(F)c1 (stereo not given)	inconclusive [inhibitor, single point]
CCOc1ccccc1N1CCN(C(=O)NCc2ccc(F)cc2)CC1	inconclusive [inhibitor, partial curve, poor fit]
Cc1cccc(NS(=O)(=O)c2ccc3c(c2)CCN3C(=O)C2CCC2)c1	inconclusive [inhibitor, partial curve, poor fit]
CN(C)S(=O)(=O)c1cccc(NC(=O)C2Cc3ccccc3CN2C(=O)c2ccco2)c1 (stereo not given)	inactive

Compound	Potency
COc1ccc([C@@H]2CC=C(C(=O)O)[C@H](c3ccc(Cl)cc3)N2S(=O)(=O)c2ccccc2C)cc1	inconclusive [inhibitor, partial curve, poor fit]
CCOc1ccc(-n2c(=S)sc3c(=O)[nH]c(SCC(=O)C(C)(C)C)nc32)cc1	inconclusive [inhibitor, partial curve, poor fit]
COCCNc1c2c(nc3c(-c4ccccc4)c(C)nn13)CCC2	inconclusive [inhibitor, single point]
Cc1[nH]n2c(=O)cc(C(C)(C)C)nc2c1-c1ccccc1	active: 3.55 µM
O=C(Nc1cccc(F)c1)c1ccc(-c2ccccc2)s1	inactive
COc1cc(Cl)cc2c1Sc1ccccc1/C2=C/CCN(C)C	inconclusive [inhibitor, single point]
CC(C)c1ccc(CN2CCC2(C)C(=O)Nc2cccc(Oc3ccccc3)c2)cc1 (stereo not given)	inconclusive [inhibitor, partial curve, poor fit]
COc1ccc(C(=O)N/N=C/c2ccc(OC)c(CSc3ccccn3)c2)cc1	inconclusive [inhibitor, single point]
Cc1ccc(C)c(N2CCN(Cc3csc(C)c3)CC2)c1	inconclusive [inhibitor, single point]
CC(NC(=O)C1CCCN(S(=O)(=O)c2cccc3nonc23)C1)c1ccccc1 (stereo not given)	inactive
Nc1ccccc1S(=O)(=O)NCCCCc1ccccc1	inconclusive [inhibitor, partial curve, poor fit]
CCOC(=O)C1=C[C@@H](C(C)(C)C)N(S(=O)(=O)c2ccc(C)cc2)[C@H]1c1ccccc1	inconclusive [inhibitor, single point]
O=C(/C=C/c1ccco1)NC(=S)Nc1cccc(-c2nc3ccccc3s2)c1	inconclusive [inhibitor, partial curve, poor fit]
Cc1ccccc1/C=C/c1nc2ccccc2c(=O)n1Cc1ccccc1	inconclusive [inhibitor, single point]
CC(C)NC(=O)C1(C)CCN1Cc1ccc(-c2ccccc2)cc1 (stereo not given)	inconclusive [inhibitor, single point]
COC(=O)C1=C(c2ccccc2)c2ccccc2S(=O)(=O)N1CC(=O)Nc1ccccc1Cl	inconclusive [inhibitor, single point]
O=S(=O)(c1ccc(F)c(F)c1)N1CCN(Cc2ccc3c(c2)OCO3)CC1	inconclusive [inhibitor, single point]
Cc1ccc2c(Cl)c(C)c(N3CCCCC3)nc2n1	active: 7.08 µM
Cc1ccc(-n2c(SCC(N)=O)nc3c(oc4ccccc43)c2=O)cc1C	inactive
Cc1ccccc1CN1C(=O)c2ccccc2S1(=O)=O	inconclusive [inhibitor, full curve]
O=C(Cn1c(=O)oc2cc(S(=O)(=O)NCc3ccccc3)ccc21)NCc1ccc(Cl)cc1	inconclusive [inhibitor, single point]
COc1cccc(C(=O)Nc2ccccc2-c2nnc(-c3cccc(OC)c3)o2)c1	inactive

Compound	Potency
COc1ccc(NC(=O)CSCC(=O)Nc2ccc(C)c(S(=O)(=O)N3CCCCCC3)c2)cc1	inconclusive [inhibitor, single point]
O=C(Nc1ccc(C2CC2(Cl)Cl)cc1)c1cccc([N+](=O)[O-])c1 (stereo not given)	inconclusive [inhibitor, partial curve, poor fit]
Cc1ccc(-c2nc(NCCN3CCOCC3)c3ccccc3n2)cc1	inactive
COc1ccccc1N1CCN(C(=O)c2cc(C(C)(C)C)oc2C)CC1	inconclusive [inhibitor, single point]
O=C(COC(=O)c1ccccc1Nc1ccccc1)Nc1ccccc1	inconclusive [inhibitor, partial curve, poor fit]
COc1ccccc1NC(=O)Cn1c(=O)n(CCCCCC(=O)NCc2ccccc2)c(=O)c2sccc21	inactive
CN(C)c1ccc(CNC2CC(C)(C)NC(C)(C)C2)cc1	inconclusive [inhibitor, single point]
O=C(/C=C/c1cccs1)NC(=S)Nc1ccc(S(=O)(=O)Nc2ccccc2C(F)(F)F)cc1	inconclusive [inhibitor, partial curve]
CC1CC(C)CN(CCCCOc2ccc([N+](=O)[O-])cc2)C1 (stereo not given)	inconclusive [inhibitor, single point]
Cc1ccc(SC(CC(=O)c2ccc(C)cc2)C(=O)O)cc1 (stereo not given)	inconclusive [inhibitor, single point]
COc1ccc(Cl)cc1C(=O)C1CCCN(Cc2cnc(N3CCOCC3)s2)C1 (stereo not given)	inactive
Cc1ccc(CSc2ncnc3ccccc23)cc1	inconclusive [inhibitor, single point]
OC(CNCc1ccc(F)cc1)(c1ccc(F)cc1)c1ccc(F)cc1	inconclusive [inhibitor, single point]
Cc1nc2c(ccc3nc(NC(=O)Cc4cccc5ccccc45)sc32)s1	inconclusive [inhibitor, partial curve, poor fit]
CCOc1ccc(/C=C/c2nc(C#N)c(NCCc3ccccc3)o2)cc1	inconclusive [inhibitor, full curve]
O=C(CSc1nc2c([nH]c3ccccc32)c(=O)n1-c1ccc(Cl)cc1)NCC1CCCO1 (stereo not given)	inactive
Cc1cc([N+](=O)[O-])ccc1NCc1cccc([N+](=O)[O-])c1	inconclusive [inhibitor, single point]
Cc1cc(C(=O)Nc2c(C)nc3ccccn3c2=O)ccc1[N+](=O)[O-]	inactive
CCOc1ccc(CN2CCN(Cc3cccn3-c3ncccn3)CC2CCO)cc1 (stereo not given)	inconclusive [inhibitor, partial curve, poor fit]
COc1cc(C(=O)Nc2nonc2-c2ccc(C)c(C)c2)cc(OC)c1OC	inactive
COc1ccc(-c2csc(N3CCN(c4cc(C)nc5ccccc45)CC3)n2)cc1OC	inconclusive [inhibitor, partial curve, poor fit]
